From the supplement of paper PMC11417369
± gives the standard deviation of the averaged measurements. The list shows a part of the results.

test system: PfAP2-G AP2 domain (GST-tagged); test: gcPBM binding intensity (ln(normalized median fluorescence intensity)); higher = stronger DNA binding
Outline: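 Using an Agilent 4 × 180k array, primer-extended double-stranded 36-bp intergenic genomic probes and negative controls were exposed for 1 h to GST-fused P. falciparum DNA-binding domains expressed in E. coli. Binding was carried out in 1× PBS with 1% milk, 0.2 mg/ml BSA, 0.5% salmon testes DNA and 0.03% Triton X-100, and protein was detected with Alexa488 anti-GST antibody and a 488 nm scan. Binding intensity is the highest Masliner-normalised natural-log median intensity across replicate spots of either probe orientation.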

Row | Sequence | gcPBM binding intensity (ln)
1 | TATCAAAATAAATGCACACAAATTGCACATATCTAT [CACACA_site1097] | 9.96 ± 0.12
2 | ATTTATATGTAGATGTGTACTTAATTGTAATGTGTT [XGTACX_site6422] | 11.6 ± 1.1
3 | AAAAAAAAAAAAAACACACACACACCCATACACATA [CACACA_site2860] | 10.3 ± 0.24
4 | AACTTTTTTATATGCACACATAAACAAGGATATATA [CACACA_site2874] | 10.3 ± 0.24
5 | TACTTCGATAATAATCGTACATATATATTGTATTTA [XGTACX_site5700] | 11.2 ± 0.76
6 | CAAAAAATACGATGTTGTACTATGTATTCCTGATGT [XGTACX_site246] | 10.7 ± 0.49
7 | TATATATACATAAAAACATGCAATATATACACATTA [TGCATGCA_site444] | 9.85 ± 0.014
8 | TTATAAAAAAAAAAAAAAAAGAAAATGAATTCACGA [CACACA_negctrl_site1248] | 9.41 ± 0.15
9 | TCCTATATCACAAATGTGCACAGAAAAAAAAAATAT | 10.5 ± 0.42
10 | ATATATATATACATACGTACACACAAATATTAAAAT [XGTACX_site4007] | 11.6 ± 1.2
11 | AATATATATAATAATTGTACAATACGTATGTTATAT [XGTACX_site8745] | 11 ± 0.54
12 | TGTATACATAATATTTGTACATATTGTTATATATAT [XGTACX_site740] | 10.8 ± 0.42
13 | TTCGACGAGAGCAAGTGTACTCTTGAATAATTTATA [XGTACX_site7613] | 11.3 ± 0.9
14 | ATTTTATTTTTTGAGTGTACTAGTTCAACAACTCCG [XGTACX_site8600] | 11.3 ± 0.81
15 | TGTTATATATTATATACATGCACAAAAGCAACACAA [TGCATGCA_site1009] | 10.09 ± 0.071
16 | ATATTTATGACCGTACGTACCTAACAATACAATCAA [XGTACX_site4511] | 11.5 ± 0.9
17 | TGAATTTCAAAACAGTGTACATTAATATATATATAA [XGTACX_site7951] | 11.2 ± 0.68
18 | ATAATATATATATGTAGTACGTATATAATTTTAATA [XGTACX_site5228] | 11.3 ± 0.81
19 | TATATATCCTTCTATGCATGCATATGGATAGATTTC [TGCATGCA_site58] | 9.87 ± 0.23
20 | TATATATAGAAACACACACACAAAAAAAAAAAAAAA [CACACA_site1506] | 10 ± 0.47
21 | ATTTAAAAAACTTTTAGCAAAAAAAAAAAATAATAA [TGCATGCA_negctrl_site191] | 9.705 ± 0.049
22 | AAATTGATATTATATATATATATATATATATATATA [GTGCAC_negctrl_site482] | 9.79 ± 0.49

Row | Sequence | gcPBM binding intensity (ln)
23 | AAAAATAAAAAAAACACACATACCTTATTTTTGTTC [CACACA_site2634] | 9.98 ± 0.17
24 | AATTAAAATTTTTTTTTTTTTTTTTTTTTTCTATTA [CACACA_negctrl_site1585] | 9.13 ± 0.19
25 | AAAAGTTAAGCAACAAATTTTATTTCTTATATATAA [TGCATGCA_negctrl_site134] | 9.82 ± 0.071
26 | ATATTTATAAATTGCACACAAATAATAACATTATAT [CACACA_site5322] | 9.99 ± 0.028
27 | TAATCATAAAAAAATACACACATATAAAATATAGAT [CACACA_site7020] | 9.81 ± 0.17
28 | TCACATACATTACTTACACACCATATTAAGATATAC [CACACA_site4415] | 10.2 ± 0.2
29 | TTTTGTATATATTATTGTACTTTTAATATAGATCGT [XGTACX_site5830] | 11.3 ± 0.86
30 | AAATAAATATATAATACACACAAAAATATAAAATGT [CACACA_site3711] | 10.2 ± 0.18
31 | TTATACTCACGTTACACACACACAATATATATATAT [CACACA_site4137] | 10.4 ± 0.36
32 | TTTTTTACAACACGAAAATGAACAATTATAATAAAT [TGCATGCA_negctrl_site301] | 10.1 ± 0.19
33 | AAAATTCTTATAAGATGTACAATTTGTAACACTATA [XGTACX_site510] | 11 ± 0.55
34 | AAATATTATTCTTTTATTTTTAAACATATAATTATA [GTGCAC_negctrl_site136] | 9.79 ± 0.042
35 | AGTAAAAAAAATATCTGTACATATTAATATAAATGT [XGTACX_site6234] | 11.1 ± 0.54
36 | TTTTATAATCATAATAGTACTTTTTCTTTTTCACAT [XGTACX_site5017] | 11.1 ± 0.58
37 | TTATACACTGATAAAAGTACATTTGTATGTTTTTTT [XGTACX_site8959] | 11.1 ± 0.68
38 | ATCTAAAAATTTTACGCACACAAGTAAAAAAAAAAA [CACACA_site2485] | 10.5 ± 0.45
39 | GTTGAAAAAAAAAATGCACACGCATACATATAATAT [CACACA_site8117] | 10.12 ± 0.042
40 | ATTTCTTTGCTTTTCAAACACACAAAAGTTATTATA [CACACA_site520] | 10.1 ± 0.21
41 | TATATATATATAATTACACACAATGTTCTATATATA [CACACA_site3235] | 9.95 ± 0.43
42 | TATTTATTTAATTACACACGAACATATAACCATTTC [CACACA_site211] | 10.2 ± 0.13
43 | TGTAGACTACATAGTAGTACATAATATATACATATA [XGTACX_site367] | 11.3 ± 0.79
44 | TTTTCTTTTAAACATATATATATATATATATATATA [XGTACX_negctrl_site559] | 9.96 ± 1.1
